The campaign covered roughly 48,000 compounds. About 120 (0.25%) were called active. About 4% were inconclusive and are not listed. Calls follow the shape of the dose curve; as a rule, active = well fitted activation curve with a large enough effect; inconclusive = small, poorly fitted or top-dose-only effect, or another doubt; inactive = no such curve, though single readings can be large or run the other way. The list shows a part of the results.

This experiment can be described thus: Primary qHTS for Identification of Small Molecule Activators of Huntingtin-Antisense Promoter Activity. Also: nearly all actives have a fitted effect of over 55% in size. The settings on record: HEK293 HTT-AS promoter firefly luciferase reporter (activity 0% = vehicle and -100% = no light), 24 h; series mostly up to 57.5 µM; activity change, positive = activation: at the top concentration. From the text:
Assay Provider: Russell L. Margolis M.D.
Department Neurology, Johns Hopkins University School of Medicine, Baltimore, MD
Huntington's Disease (HD) is a neurodegenerative disorder caused by a CAG repeat expansion in exon 1 of huntingtin (HTT). While there are currently no disease-modifying treatments for HD, recent efforts have focused on development of nucleotide-based therapeutics to lower HTT expression. As an alternative to siRNA or oligonucleotide methods, we hypothesized that suppression of HTT expression might be accomplished by small molecules that either (1) directly decrease HTT expression by suppressing HTT promoter activity or (2) indirectly decrease HTT expression by increasing the promoter activity of HTT-AS, the gene antisense to HTT that appears to inhibit expression of HTT.
We developed and employed a high throughput screen for modifiers of HTT and HTT-AS promoter activity using luminescent reporter HEK293 cells; of the 52,041 compounds tested, we identified 898 replicable hits. We used a rigorous stepwise approach to assess compound toxicity and the capacity of the compounds to specifically lower huntingtin protein in 5 different cell lines, including HEK293 cells, HD lymphoblastoid cells, mouse primary neurons, HD iPSCs differentiated into cortical-like neurons, and HD hESCs. We found no compounds which were able to lower huntingtin without lowering cell viability in all assays, though the potential efficacy of a few compounds at non-toxic doses could not be excluded.
SEQUENCE No. (1, 2, 3, etc.); […] (e.g., Cells, Incubation, Reagent, etc.); VALUE and DESCRIPTION.
1; Reagent; 4 uL; 2,500 Hek293 luciferase reporter cells per wells
3; Compound; 23 nL; Control inhibitor / compound library
5; Reagent; 2.5 uL; Firefly Luc reagent; Dual-Glo Luciferase Reporter Assay System (Promega)
6; Time; 10 min; room temperature incubation
7; Detection; Luminescence; FLuc
NOTES (numbers refer to sequence above)
1; High-throughput screening, measuring luminescence from a Hek293 luciferase reporter, was performed in 1,536 well white-walled tissue-culture treated plates. 2,500 cells were plated in 4 µL of Opti-MEM per well using a Multidrop Combi Reagent Dispenser (ThermoFisher).
2; Assay plates were cultured for 24 hours.
3; Control inhibitor (PTC124; final concentration of 50 uM) and compound library (at final concentrations of 460 nM - 57.5 uM) were added to the assay plate using the Kalypsis Pintool Robotic System equipped with 1536 pinheads.
4; Cells were then incubated for 24 hours at 37 degrees C prior to luminescence measurements.
5; In all cases, luminescence was measured using the Dual-Glo Luciferase Reporter Assay System (Promega) following the manufacturer's instructions.
6; Room temperature incubation.
7; Luminescence signal was obtained using the PerkinElmer ViewLux plate reader. Results were normalized to vehicle control (0% activity) and zero RLU (-100% activity).
A general note: Quantitative high-throughput screening tests each substance at several concentrations.
Regarding `COC(=O)C(NC(=O)CCc1c(C)nc2c(-c3ccccc3)c(C)nn2c1C)C(C)C` (stereo unspecified), the “activity change, positive = activation” value was inactive: -34%.

For the molecule `CC(C)Cc1ccc(S(=O)(=O)N2CCN(Cc3noc(CCC(=O)N4CCCCC4)n3)CC2)cc1`, the “activity change, positive = activation” value was inactive: -31.2%.

Turning to `CC1=C(c2ccc(F)cc2)S(=O)(=O)N=C1N1CCC(C(=O)NCCc2ccccc2C)CC1`, the “activity change, positive = activation” value is inactive: -10.7%.

As to `COc1ccc(C2C(C(=O)Nc3ccccc3)=C(C)Nc3nc(SCC(=O)c4ccc(C)cc4)nn32)cc1` (stereo unspecified), the “activity change, positive = activation” value was inactive: -5.91%.

With `Cc1c(C(=O)Nc2ccc(-n3c(C)nc4ccccc4c3=O)cc2)cccc1[N+](=O)[O-]`, the “activity change, positive = activation” value is inactive: -18.7%.

Consider `Cc1ccc(CNC(=O)c2ccc(CSCc3cccc(C)c3)o2)cc1`, for which the “activity change, positive = activation” value is inactive: -18.3%.

As for `Cc1cc(C)cc(-n2c(SCC(=O)N3CCOCC3)nc3c([nH]c4ccccc43)c2=O)c1`, the “activity change, positive = activation” value was inactive: -2.26%.

In the case of `COc1cccc(-c2nnc(-c3ccccc3NC(=O)c3ccc(F)cc3F)o2)c1`, the “activity change, positive = activation” value was inactive: -1.65%.

Turning to `Cc1ccc(CCNS(=O)(=O)c2c(C)nc3sc(C)c(C)n3c2=O)cc1`, the “activity change, positive = activation” value was inactive: -5.55%.

In the case of `Cc1ccc(NS(=O)(=O)c2ccc3[nH]c4c(c3c2)CCCC4)cc1N(C)C`, the “activity change, positive = activation” value is inactive: -38.5%.

Take `CC1CCN(S(=O)(=O)c2ccc3c(c2)N(CC(=O)NCCc2ccccc2)C(=O)CO3)CC1`: the “activity change, positive = activation” value is inactive: -5.17%.

For the molecule `Cc1noc(-c2ccc(NC(C)c3ccccc3)c([N+](=O)[O-])c2)n1` (stereo unspecified), the “activity change, positive = activation” value is inactive: -8.93%.

For the molecule `CCC(=O)N1CCc2cc(Br)cc(S(=O)(=O)N3CCN(c4ccccc4OC)CC3)c21`, the “activity change, positive = activation” value was inactive: -7.42%.

For the molecule `CCOC(=O)CC(=O)CSc1nc2ccsc2c(=O)n1Cc1ccccc1`, the “activity change, positive = activation” value was inactive: -21.2%.

Turning to `Cc1ccc(CNC(=O)c2nc(SCc3ccccc3C)ncc2Cl)cc1`, the “activity change, positive = activation” value is inactive: -14.3%.

Turning to `COc1ccc(-c2oc3c(CC=C(C)C)c(O)cc(O)c3c(=O)c2O)cc1`, the “activity change, positive = activation” value is inactive: -22.1%.

For `CC1(c2ccccc2)CC(C)(C)N(C(=O)c2cccc(Cl)c2)c2ccccc21` (stereo unspecified), the “activity change, positive = activation” value is inactive: -25.6%.

Take `O=C1C(Cl)=C(NCCN2CCOCC2)C(=O)c2ncccc21`: the “activity change, positive = activation” value was inactive: -95.5%.

On to `COc1ccccc1NC(=O)c1ccc(CN2C(=O)C(C)=C(c3ccc(C)c(C)c3)S2(=O)=O)cc1`, for which the “activity change, positive = activation” value is inactive: -16.5%.

Regarding `COc1ccc(C(=O)Nc2nnc(SCc3cc(=O)c4cc(C)cc(C)c4[nH]3)s2)cc1`, the “activity change, positive = activation” value is inactive: 0.587%.

With `Cc1ccc(CNC(=O)CCCn2c(=O)c3ccccc3n(CC(=O)Nc3ccc(C)c(C)c3)c2=O)cc1`, the “activity change, positive = activation” value is inactive: -4.23%.

Consider `CCOc1ccc(CCNC(=O)CCCn2c(=O)c3cccn3c3ccccc32)cc1`, for which the “activity change, positive = activation” value was inactive: -19.7%.

Turning to `COC(=O)NCC(c1cccnc1)N1CCN(c2ccc(F)cc2)CC1` (stereo unspecified), the “activity change, positive = activation” value is inactive: -11.6%.

As to `Cc1ccc(-n2ncc3c(NCCC4=CCCCC4)ncnc32)cc1`, the “activity change, positive = activation” value was inactive: 8.91%.

As for `Cc1ccc(Cl)cc1NC(=O)C(C)n1nc(-c2ccccc2)ccc1=O` (stereo unspecified), the “activity change, positive = activation” value is inactive: -23.5%.

As to `Cn1c(=O)c2c(nc(SCC(=O)Nc3ccccc3F)n2Cc2ccc(Cl)cc2)n(C)c1=O`, the “activity change, positive = activation” value is inactive: -4.2%.

As for `CCc1ccccc1NC(=O)CCNS(=O)(=O)c1ccc2c(c1)CCN2C(=O)C1CC1`, the “activity change, positive = activation” value is inactive: -9.61%.

With `COc1ccc(C2=CC(c3ccccc3Cl)n3nc(-c4ccc(Cl)cc4)nc3N2)cc1` (stereo unspecified), the “activity change, positive = activation” value is inactive: -49%.

Regarding `Cc1ccc(Cl)cc1N1CCN(C(=O)Cn2cnc3sc(C)c(S(=O)(=O)N4CCC(C)CC4)c3c2=O)CC1`, the “activity change, positive = activation” value was inactive: -38.6%.

For the molecule `COC(=O)c1scc(-c2ccc(C)cc2)c1S(=O)(=O)N1CCN(c2ccc(C(C)=O)cc2)CC1`, the “activity change, positive = activation” value was inactive: -24.9%.

In the case of `Cc1nc2nc(NCc3ccc(Cl)cc3)[nH]n2c(=O)c1Cc1ccccc1`, the “activity change, positive = activation” value was inactive: 3.89%.

As for `CCCn1c(CCC(=O)Nc2ccc(OCC)cc2)nc2cccnc21`, the “activity change, positive = activation” value is inactive: -9.59%.

Consider `CCN(CC)CCCCNc1ncc2c(n1)N(C)C(=O)N(c1c(Cl)c(OC)cc(OC)c1Cl)C2`, for which the “activity change, positive = activation” value was inactive: -8.72%.

As for `CC1CCc2c(sc(NC(=O)C3c4ccccc4Oc4ccccc43)c2C#N)C1` (stereo unspecified), the “activity change, positive = activation” value is inactive: -41.7%.

Consider `Cc1ccc(-n2c(=O)c3c(C)c(C)sc3n(CC(=O)NCc3ccccc3)c2=O)cc1C`, for which the “activity change, positive = activation” value was inactive: -10.6%.

In the case of `CCOC(=O)c1c(C)oc2nc(C)nc(NCc3ccc(F)cc3)c12`, the “activity change, positive = activation” value is inactive: 13.7%.

For the molecule `CCN1CCC[C@H]1CNC(=O)c1cc(S(N)(=O)=O)ccc1OC`, the “activity change, positive = activation” value is inactive: 3.46%.

Take `COc1ccccc1N1CCN(CCCNC(=O)c2cnn(-c3cccc(Cl)c3)c2C2CCN(C(=O)OC(C)(C)C)CC2)CC1`: the “activity change, positive = activation” value is inactive: -27.6%.

In the case of `Cc1ccc(CN2C(=O)C3(c4ccccc42)N(c2cccc(F)c2)C(=O)CS3(=O)=O)cc1` (stereo unspecified), the “activity change, positive = activation” value is inactive: -29.9%.

As to `CCOc1ccc(CNC(=O)Cn2cc3c(n2)-c2c(oc(C(=O)N4CCOCC4)c2C)CC3)cc1`, the “activity change, positive = activation” value was inactive: -34.9%.

Turning to `Cc1ccccc1CN1CCC(CNc2ncnc3onc(-c4ccc(F)cc4)c23)CC1`, the “activity change, positive = activation” value is inactive: -21.6%.

Regarding `CCOC(=O)c1c(C)c(-c2ccccc2)n(CC(=O)Nc2cc(C)ccc2OC)c1C`, the “activity change, positive = activation” value is inactive: -13.2%.

For the molecule `COc1cc(NC(=O)NC(C)c2c(-n3cccc3)sc3c2CCCC3)cc(OC)c1OC` (stereo unspecified), the “activity change, positive = activation” value was inactive: 0%.

Take `CC(=O)Nc1ccc2nc(-c3cc(C)ccc3C)[nH]c2c1`: the “activity change, positive = activation” value was inactive: -0.265%.

Consider `CCc1cccc(-n2nnc(-c3nsc(NC(=O)c4cccs4)n3)c2C)c1`, for which the “activity change, positive = activation” value was inactive: 24.9%.

With `CCCCN(CC)CCNC(=O)c1cn(C)c(=O)c2c1c1ccccc1n2C`, the “activity change, positive = activation” value is inactive: 2.69%.

For the origin of these results see PubChem BioAssay AID1508624 (National Center for Advancing Translational Sciences (NCATS), 2021).
